# Reference: PMC12136788
# Some of the results follow.
# B1: chr5:37516192:37516193:+_ENSMUSG00000063646_ENSMUST00000043794|mus_mus|FALSE|FALSE (ssRNA)
# RNA: GGGAGUUCUACAGUCCGACGAUCUCCGUUUGAGAGCUUACAACAGAUAGAGUCUCUUACUUCGAGUUCUAGCACUCUGAAUUCUAACAGCUCGUUCUGGUCCUUGGCGUCUUGCAUUUCGCUCUUUAGCUGGUUCUCCUCCAUCAACAGAGGAUUGAGCAUCA
# B2: chr7:35424158:35424159:-_ENSMUSG00000030499_ENSMUST00000108069|mus_mus|FALSE|FALSE (ssRNA)
# RNA: GGGAGUUCUACAGUCCGACGAUCGUACAUCAGCAUCUUUACAAUAUUAAAGGAGUCAUAUACAAGUCUACAGGCGUUAUACACAAGGGGGUGCCGGCCAGGGCACCCCAUCUGUCAGUUCUUUGCGGUUCCUCCACUUGGGAGCAACAGAGGAUUGAGCAUCA
# B3: chr7:151048522:151048523:+_ENSG00000013374_ENST00000566856|hu_mus|hu_hu_hu_mus_True|28_78 (ssRNA)
# RNA: GGGAGUUCUACAGUCCGACGAUCCUGUUUCUUAUUUAUUACGAUCUUGAUGUAAUUUUCUUGAAGUCCGAAAGUUUCAGCUAUUUGACACCUCAGGUCUCUACCAGUGAUGUGCAAGCGGGUCUCCAACAAGCUUUUCUUAUCCAACAGAGGAUUGAGCAUCA
# B4: 70707100_70714003_815_CDS_ENSMUSG00000020817_ENSMUST00000076270|mouse|control|control (ssRNA)
# RNA: GGGAGUUCUACAGUCCGACGAUCGGCCUCCAGAUAAUGAUUCAGCUCCUUAACCUUUGAGGCCUCCAGCUCUUUAAUCUUGUCUUCAGCUUCUGUCAGUUUAUCUUUCAGAGCUGCAAUUUCCUUCUCCAUGGGCAUCACGACCAACAGAGGAUUGAGCAUCA
# B5: chr7:883111:883112:+_ENSG00000164828_ENST00000456758|hu_mus|FALSE|FALSE (ssRNA)
# RNA: GGGAGUUCUACAGUCCGACGAUCGAGGUCACGUGGUUUGAGAGUCCUGUCUCUGGAGUACACCCUGGAGGUGGUCCCGUGGAUGGCAGAGUGGGCUGUGAGUGCGUCAGUGCGCGCUGAGAGCAUCCUGCAGUCACGGCAAGUCAACAGAGGAUUGAGCAUCA
# B6: chr18:38477064:38477065:+_ENSMUSG00000060450_ENSMUST00000072376|mus_hu|FALSE|FALSE (ssRNA)
# RNA: GGGAGUUCUACAGUCCGACGAUCUGCAGAUAUAAUUCAAGAACAUUCAGCUUGGGAAUAUAUUAAGCUUUCUCCUAUUCCAGCAGAGGAAAUAAAAACAUGUGUUCCUGGAAUUAAUAUUAAAAUCAUCCUUACAAACAGAAGCAACAGAGGAUUGAGCAUCA
# B7: chrX:11616105:11616106:-_ENSMUSG00000040363_ENSMUST00000043441|mus_hu|FALSE|FALSE (ssRNA)
# RNA: GGGAGUUCUACAGUCCGACGAUCGAUGUUAUAACACGGUAAGAGGGGGGUCUCUGAAAAUUCAAAUUCAAACACAUCGCUAUAGGCAUCGUCAUCAUCAUCCUGGUCUUCUGGUCCUGGGGGGUUGGCUAAAACAUCAUAGCCCAACAGAGGAUUGAGCAUCA
# B8: chr9:130210260:130210261:-_ENSG00000197958_ENST00000361436|hu_hu|motif|central (ssRNA)
# RNA: GGGAGUUCUACAGUCCGACGAUCGCCCACUGACUGGGCAGUCCCCAGGAUCUCUUUAAUGGUUCCAGAGAGUUCUCUGGCGGAGGAUCGGUGCCGCAUCUGUCGAGCAAUGUUGACAAUCUCAUCAAAAGUGAUAUUCCCACUCAACAGAGGAUUGAGCAUCA
# B9: chr1:172411362:172411363:-_ENSG00000135845_ENST00000344529|hu_hu|FALSE|FALSE (ssRNA)
# RNA: GGGAGUUCUACAGUCCGACGAUCCAUGGCAUAGAUGGUGUCAGUGCUGACAGACUCUGUAAGGGUCUUCAGCACUGGUGAAAACCCAUAAGUGAAAGUAAUGAAGACUAGGGCACUCUUCAGGUCAGCCCACCGGGUCUGCCCCAACAGAGGAUUGAGCAUCA
# B10: 101235404_101239261_1892_CDS_ENSMUSG00000042035_ENSMUST00000043983|mouse|control|control (ssRNA)
# RNA: GGGAGUUCUACAGUCCGACGAUCGCUGCUUUUGAGGGGCAGCACGACGAUGGGGAUGUUCUUGGGCCGCUUGCUCUCCUUGUCUAUGAACUCGCCAGUGACAGUCUUCUCUCGCUCAGUCACCCGGCAGUUGUAUUUGCCACUCAACAGAGGAUUGAGCAUCA
# B11: chr4:17845017:17845018:+_ENSG00000109805_ENST00000514176|hu_mus|hu_hu_hu_mus_False|1_38 (ssRNA)
# RNA: GGGAGUUCUACAGUCCGACGAUCGCUCUCUUAACUUGUAUCUUCAUUAAGGAACUCUGCAAGGUUAAGUUUACUUUUCUGUAGCGCAGCUGUUUUGCUCGUCUUGGGUAAUCUCAUCUUCAUUUCUGAUGGUGGUUUGGAACUCAACAGAGGAUUGAGCAUCA
# B12: chr11:46405157:46405158:+_ENSG00000110492_ENST00000395566|hu_hu|hu_hu_hu_mus_False|48_48 (ssRNA)
# RNA: GGGAGUUCUACAGUCCGACGAUCCCCUCCCCACUUUGGGCACUUGGUGUGGGCGUGAGAGGACAGGCGUGAUUGACAGAGCUGACAAGCAGACAGAAGGCACUGGUGGGUUAUAUCUUGGGCCUGUGGGAGAGGAGGGCUCCGCAACAGAGGAUUGAGCAUCA
# B13: 31412609_31414751_1557_CDS_ENSMUSG00000039100_ENSMUST00000090227|mouse|control|control (ssRNA)
# RNA: GGGAGUUCUACAGUCCGACGAUCUUCCUGUACUGGAUUAAAAUCUGGAUCGUUCAAAUUCCUCAGAAACCAUAAGACACCAGGUCGAAGUACCUCUCUCAGUAACAGGAUGAAGGAGGCAAAGUAGAACACAUACACCAUUCCCAACAGAGGAUUGAGCAUCA
# B14: chr1:184247048:184247049:-_ENSMUSG00000047539_ENSMUST00000051431|mus_hu|motif|central (ssRNA)
# RNA: GGGAGUUCUACAGUCCGACGAUCCUGGAACUAGAACCACAUUCCAAUUUACUUUCUAUUCCGAAGACGUUUAGAUUUCCGGAGAGAGUCUAUGGCUUCCGUGGCCUUUUUUCGUUUCCGAGGAGACUCCUCAUUCUGCCCGGACAACAGAGGAUUGAGCAUCA
# B15: chr17:35122734:35122735:+_ENSMUSG00000007050_ENSMUST00000114011|mus_hu|motif|central (ssRNA)
# RNA: GGGAGUUCUACAGUCCGACGAUCCCAUCCCCAAAUGAAUCACAUGCUGCCCUGGAAAGACCUAGGAAACUCUCCGGCCAUCUCCAGAGAAGUAGUGAGAAAGGCAGGUGCUGGGGACUGGGAAGGCUUUGAAGUUUCCCAGCCCAACAGAGGAUUGAGCAUCA
# B16: chr1:225977196:225977197:+_ENSG00000143742_ENST00000304786|hu_hu|motif|central (ssRNA)
# RNA: GGGAGUUCUACAGUCCGACGAUCAUUUCCAAAAGUAAAUAAAGGCUUUCUAACUGAAAACAUUUGCAUCCCUAGCUCUCGGAAGUAAUUAAAAAGAAAAUUACAAAAAAUGACCUCUAAGCUUCUGAACAGCCCACUUAGUUACAACAGAGGAUUGAGCAUCA
# B17: 49420930_49422925_1199_CDS_ENSG00000166200_ENST00000299259|human|control|control (ssRNA)
# RNA: GGGAGUUCUACAGUCCGACGAUCCACAUCAGCUACAUCUAUGUUUAACUCCUUAGAAAUAAAAGGAAUAUGUAUUCUUGUGUAAGGCUUAAUUAAUUUUAUAAGCACUUGUGUUCUGAUGUUUCGCAAAAGCUCUUCAAUGUGCAACAGAGGAUUGAGCAUCA
# B18: chr14:76904430:76904431:+_ENSMUSG00000022010_ENSMUST00000022587|mus_mus|mus_mus_mus_hu_True|28_88 (ssRNA)
# RNA: GGGAGUUCUACAGUCCGACGAUCUGCAGCCAAAAACACCCUCGUGGCGGGAGGGAGGGAACACCAGCAGCCUUGUAUAAGCUAGAUAAAAUCUUCUGGCUUUCCGCAGCUCAGGGCGAAACAGAAAACGGCAGCCCUAAUUUACAACAGAGGAUUGAGCAUCA
# B19: chr11:102301342:102301343:-_ENSMUSG00000034685_ENSMUST00000049057|mus_mus|FALSE|FALSE (ssRNA)
# RNA: GGGAGUUCUACAGUCCGACGAUCAGGCACCUCUGUCCCAUUGCCUGUUAGCAGGUGGACGCUCACAGCAGCCAGUGGUAUCAGCUCCAGCCAGGAGCCAUUGCCUGAGCUGGAGGCCUCGGUCCCCAGGAAGGCAGGGAAAGCCAACAGAGGAUUGAGCAUCA
# B20: chr11:60966614:60966615:-_ENSMUSG00000042506_ENSMUST00000041683|mus_hu|FALSE|FALSE (ssRNA)
# RNA: GGGAGUUCUACAGUCCGACGAUCACUGAGCAGUGAGUAGCAGCUGCCACUGUCACUACCCCCUCCCCAGCCCAGCCAGCUAAGGAGCUGGGUCUGGUCCCCACCAGCUUCUCCAUGGCCUGUGAGCUAAGAAUAGGUUUCACGCAACAGAGGAUUGAGCAUCA
# B21: chr10:110404880:110404881:-_ENSMUSG00000035798_ENSMUST00000041723|mus_mus|FALSE|FALSE (ssRNA)
# RNA: GGGAGUUCUACAGUCCGACGAUCGUUUUUGUGAUACUUGUCACCAAGGUUAACUGAAACAUUGAAUGUUAAAAGCAAUCUAGUUGGAUCCACACUAUGUGUUCUAUAAGCUGCCCACAUUAAAGGGGUCAUUCCAUUCUGAUCCAACAGAGGAUUGAGCAUCA
# B22: chr3:185639903:185639904:-_ENSG00000136527_ENST00000456380|hu_hu|FALSE|FALSE (ssRNA)
# RNA: GGGAGUUCUACAGUCCGACGAUCUUGUUAUAGAGAAAUCAACUCUGAUCCUACGCCCAUCAAGCUCCAUUCCAUUGGCACGUUCUUUAGCUUCCUUGGCAUCAUCUACAUUUUCAAAAUAUACAAAGGCAAAUCCUCUUGAACCAACAGAGGAUUGAGCAUCA
# Target: T1, UNK ZnF1-3 (human, UniProt Q9C0B0 31-174)
# T1 sequence: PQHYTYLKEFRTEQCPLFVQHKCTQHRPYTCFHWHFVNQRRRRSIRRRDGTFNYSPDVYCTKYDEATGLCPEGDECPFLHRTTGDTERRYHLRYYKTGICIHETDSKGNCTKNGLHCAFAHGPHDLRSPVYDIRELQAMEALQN
# Experiment: nsRBNS (natural sequence RNA bind-n-seq); RBNS binding buffer (assumed for nsRBNS): 25 mM Tris pH 7.5, 150 mM KCl, 3 mM MgCl2, 0.01% Triton X-100, 500 ug/ml BSA, 20 U/ml SUPERase-In, 4 C; UNK is unkempt and MSI1 is Musashi-1; names of the RNAs are library labels; protein concentration not given here; high values mean tight binding
row,Binder,binding signal [enrichment R]
1,B1,0.441
2,B2,0.591
3,B3,0.629
4,B4,0.827
5,B5,0.924
6,B6,1.74
7,B7,1.4
8,B8,1.24
9,B9,0.653
10,B10,0.651
11,B11,0.399
12,B12,2.26
13,B13,1.35
14,B14,0.585
15,B15,0.705
16,B16,1.85
17,B17,0.889
18,B18,1.54
19,B19,1.1
20,B20,1.04
21,B21,0.848
22,B22,1.11
